# Measurements: PMC4336329 (PLoS ONE, 2015)
# Out of some 310,000 compounds screened, about 14,000 (4.5%) showed an effect of 50% or more. Effects have a minus sign here. The list shows a part of the results.
# Target: human ether-à-go-go-related gene (hERG) potassium channel (human, UniProt Q12809)
# Assay: primary screen, population patch clamp on CHO cells stably expressing hERG
# 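Note: peak tail current of the secondary pulse compared with the same well before compound.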
# Sequence of human ether-à-go-go-related gene (hERG) potassium channel (Q12809 whole entry, looked up): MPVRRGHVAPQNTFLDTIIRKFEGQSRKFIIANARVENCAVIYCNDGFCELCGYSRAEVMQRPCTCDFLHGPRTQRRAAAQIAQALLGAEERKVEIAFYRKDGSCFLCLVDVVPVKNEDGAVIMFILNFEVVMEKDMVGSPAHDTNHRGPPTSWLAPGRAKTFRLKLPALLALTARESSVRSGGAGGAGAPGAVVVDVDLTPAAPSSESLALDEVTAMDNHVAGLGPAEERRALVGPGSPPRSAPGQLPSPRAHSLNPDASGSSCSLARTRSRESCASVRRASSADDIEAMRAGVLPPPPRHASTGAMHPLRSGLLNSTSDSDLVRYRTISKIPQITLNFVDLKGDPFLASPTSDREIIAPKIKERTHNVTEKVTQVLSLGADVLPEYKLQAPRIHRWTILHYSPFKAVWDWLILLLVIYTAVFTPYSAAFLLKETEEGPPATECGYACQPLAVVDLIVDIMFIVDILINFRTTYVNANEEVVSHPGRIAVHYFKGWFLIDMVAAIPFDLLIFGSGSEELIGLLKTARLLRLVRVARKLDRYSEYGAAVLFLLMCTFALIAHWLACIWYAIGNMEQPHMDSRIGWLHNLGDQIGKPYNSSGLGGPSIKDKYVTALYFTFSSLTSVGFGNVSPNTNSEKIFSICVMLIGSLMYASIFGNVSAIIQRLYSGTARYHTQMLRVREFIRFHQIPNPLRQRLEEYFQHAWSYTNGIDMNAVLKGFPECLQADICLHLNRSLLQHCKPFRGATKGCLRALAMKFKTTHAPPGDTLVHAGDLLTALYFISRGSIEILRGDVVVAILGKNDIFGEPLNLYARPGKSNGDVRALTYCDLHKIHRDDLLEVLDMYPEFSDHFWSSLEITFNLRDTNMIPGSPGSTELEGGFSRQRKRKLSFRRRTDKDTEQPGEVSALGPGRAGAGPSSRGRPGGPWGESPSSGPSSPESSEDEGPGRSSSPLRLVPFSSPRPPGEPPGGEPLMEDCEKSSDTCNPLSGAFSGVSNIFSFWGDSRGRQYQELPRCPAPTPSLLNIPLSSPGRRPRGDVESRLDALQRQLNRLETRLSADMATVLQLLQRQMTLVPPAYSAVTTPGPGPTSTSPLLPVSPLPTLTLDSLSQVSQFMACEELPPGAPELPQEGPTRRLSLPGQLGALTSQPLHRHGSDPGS
row,SMILES,"hERG current change (%, negative = inhibition) at 10uM [%]"
1,O=C(CCCc1nc(-c2ccc(Cl)cc2)no1)NCC1CCCO1 (centres unmarked),-7.24
2,CN1CCCC1CCNS(=O)(=O)c1ccc(Br)cc1 (centres unmarked),-28.6
3,Cc1c(Cl)cccc1NC(=O)NCCCN1CCCC1=O,3.76
4,[Br-].c1ccc(N2CC[N+]3(CCCC3)CC2)nc1,-5.05
5,O=C(NC(Cc1ccccc1)C(=O)O)/C(=C\c1ccc(F)cc1)NC(=O)c1ccccc1 (centres unmarked),11.1
6,COc1ccc(N=Cc2c(O)c3ccccc3n2C(C)=O)cc1,-0.828
7,O=C(C1=C(O)C(=O)N(c2nccs2)C1c1ccccc1)c1cc2ccccc2o1 (centres unmarked),19.7
8,Cc1cc(-c2cc(-c3ccccc3)on2)nc(NC2CCCC2)n1,15.7
9,O=C(CC(NC(=O)c1ccccc1Cl)c1ccccc1)NCCc1ccc(Cl)cc1 (centres unmarked),6.33
10,CC(=O)c1ccc(C(=O)N2CCc3c([nH]c4ccccc34)C2c2ccccn2)s1 (centres unmarked),6.12
11,O=c1[nH]c(O)c(/C=C2\C=NN=C2c2ccccc2)c(=O)[nH]1,6.54
12,COc1cc(N(C)C)c([N+](=O)[O-])cc1C(=O)NC(C)CNc1ccc([N+](=O)[O-])cc1Cl (centres unmarked),-2.36
13,COc1ccc(NC(=O)C(=O)NCC2CCCN2S(=O)(=O)c2ccc(C)cc2)cc1 (centres unmarked),-24.7
14,COc1cccc(CN(C)C(=O)c2cccc(OC3CCN(C4CCCC4)CC3)c2)c1,-55.1
15,Cc1ccc(NC(=O)CN(C)CCOc2ccccc2)c([N+](=O)[O-])c1,10.2
16,C/C=C(\C)C(=O)NCCN1C2=NC[C@H](Cc3ccccc3)N2C[C@H]1Cc1ccc(O)cc1,1.99
17,CCCC(=O)Nc1nnc(SCC(=O)NC2CC2)s1,11.4
18,CC(C)C12CN3CCN(CC(C3)C1O)C2 (centres unmarked),-1.29
19,Cc1onc(-c2ccccc2)c1C(=O)N1CCOCC1,7.71
20,CC1CCN(CCCNC(=O)c2cc3sccc3n2C)CC1,-57.3
21,C=CCN(c1ccc(C(=O)NCCSc2ccccc2)cc1)S(C)(=O)=O,-1.01
22,COc1cccc(/C=C/C(=O)Nc2ccc(OC)nc2)c1,-26.1
23,Cc1cccc(-n2cc(CNCCc3nc(C)cc(C)n3)c(-c3cccc(F)c3)n2)c1,-67.9

row,SMILES,"hERG current change (%, negative = inhibition) at 10uM [%]"
1,O=C(CCC(=O)N1CCSc2ccccc21)NCc1cccc(Br)c1,-17.9
2,COc1cc(NC(=O)CCN2CCN(CCO)CC2)cc(OC)c1,9.89
3,CN(C)/C=C1/OC(=O)C(C#N)=C1c1ccc(Cl)cc1,2.54
4,Cc1ccsc1CNCCc1ccc(F)cc1,-14.8
5,COc1ccc(CN2CCNC(=O)C2CC(=O)NCc2cn[nH]c2-c2ccccc2)c(F)c1 (centres unmarked),-1.07
6,COc1ccccc1NC(=O)c1cnc(SCC(=O)NCC2CCCO2)n(C)c1=O (centres unmarked),-6.13
7,Cc1occc1C(=O)NCc1cccs1,-21.2
8,Cn1nccc1NC(=O)c1nccnc1C(=O)O,4.4
9,CC(C)n1ncc2c(C(=O)Nc3ccc(CC#N)cc3)cc(C3CC3)nc21,17.3
10,COc1cc(/C=N/NC(=O)CCn2nnc3ccccc32)ccc1O,20.4
11,CSc1ncccc1C(=O)NC1CCN(Cc2ccccc2)CC1,-14.5
12,CCCCOc1ccc(C(=O)NCC(=O)OC2CCOC2=O)cc1 (centres unmarked),4.84
13,CCOC(=O)c1c(NC(=O)CN2C(=O)NC3(CCCC3)C2=O)sc(C)c1CC,-4.59
14,COC(=O)c1ccc2nc(-c3ccc(S(C)(=O)=O)cc3)cn2c1,-29.2
15,COCCNC(=S)NC(=O)c1ccc(C(C)(C)C)cc1,-29.7
16,Nc1c(O)ccc2c1C(=O)c1ccccc1C2=O,22.3
17,Nn1c(COc2ccc(Cl)cc2)n[nH]c1=S,4.74
18,CN(Cc1cccnc1)Cc1cn[nH]c1-c1ccc(-c2ccccc2)cc1,-56.7
19,COC(=O)C1CSC(C(=O)OC)N1C(=O)Nc1ccc(Cl)cc1 (centres unmarked),2.1
20,Cc1ccccc1OCC(=O)N(Cc1ccc(N(C)C)cc1)C1CCS(=O)(=O)C1 (centres unmarked),-14.2
21,COc1ccc(C2=NN(S(=O)(=O)c3ccccc3)C(c3ccccc3)C2)cc1 (centres unmarked),25.3
22,CCOC(=O)c1cc2c(C(F)(F)F)cc(-c3cccnc3)nc2o1,10.2
23,Cc1sc2nc(SCC(=O)N3CCOCC3)[nH]c(=O)c2c1-c1ccccc1,-4.3

row,SMILES,"hERG current change (%, negative = inhibition) at 10uM [%]"
1,S=c1[nH]cc(-c2ccc(Cl)cc2)n1Cc1ccccc1,23.6
2,COc1ccc(C(N)=S)cc1,6.41
3,O=C1N(c2cccc(Cl)c2)C(c2ccccc2)N2CCCN12 (centres unmarked),-7.49
4,O=C(CN1CCC(Cc2ccccc2)CC1)N1CCc2ccccc2C1,-69.3
5,CC(=O)N1c2ccc(Cl)cc2C2C=CCC2C1c1cccc2ccccc12 (centres unmarked),20.3
6,COc1ccc2c(c1OC)C[N+]1([O-])CCc3cc4c(cc3C1C2)OCO4 (centres unmarked),-7.89
7,Cc1ccc(C(=O)N2CCN3C(=O)c4ccccc4C23c2ccccc2)cc1 (centres unmarked),-12.8
8,CC(=O)Nc1ccccc1C(=O)N1CCN(Cc2ccccc2)CC1,5.02
9,Cc1ccsc1/C=N\NC(=O)CC(=O)NCc1ccccc1,14.2
10,Cc1cnc(C(=O)Nc2ccc(-n3cnnn3)cc2)cn1,-7.49
11,Cc1cccc2c(=O)c(C(=O)N3CCCCCC3)c[nH]c12,-0.176
12,COc1cccc(-c2ccc(=O)n(CC(=O)Nc3ccc(C(=O)N4CCCC4)cc3)n2)c1,-15.4
13,O=c1c2ccccc2oc2ccc(NCCCN3CCOCC3)cc12,-41.9
14,O=C(NCc1ccc2c(c1)OCO2)c1ccc(S(=O)(=O)NCC2CCCO2)cc1 (centres unmarked),-9.62
15,Cc1ccc(NC(=O)/C(=C\c2cccnc2)NC(=O)c2ccco2)cc1,-28.5
16,CN(C)S(=O)(=O)c1ccc(N2CCCC2)c(C(=O)NNC(=O)COc2cccc(F)c2)c1,-6.57
17,CC(C)(C)C1=Nn2c(nnc2-c2n[nH]c3c2CCC3)SC1,-7.6
18,C=CCN1C(=Nc2cccnc2)SCC1(O)c1ccc(C)cc1 (centres unmarked),4.64
19,CCc1ccc(C(=O)NNC(=O)c2n[nH]c(=O)c3ccccc23)cc1,13.6
20,O=C(CCCN=C1NS(=O)(=O)c2ccccc21)OCC(=O)c1ccc(F)cc1,-32.3
21,Nc1c(C(=O)NC23CC4CC(CC(C4)C2)C3)sc2nc3c(c(C(F)(F)F)c12)CCC3,0.00528
22,Cc1cccc(NC(=O)CSCC(=O)N2CCN(C(=O)c3ccco3)CC2)c1,-30.5
23,Cc1cc(OCC(=O)Nc2ccc(CN3CCOCC3)cc2)c2c(C)cc(=O)oc2c1,4.32

row,SMILES,"hERG current change (%, negative = inhibition) at 10uM [%]"
1,NC(=O)COC(=O)c1cc(-c2cccs2)nn1-c1ccccc1,-9.72
2,O=C(CSc1nnc(-c2ccc(C(F)(F)F)cn2)o1)Nc1cccc(Cl)c1,5.72
3,Nn1c(SC/C=C/c2ccccc2)nnc1-c1ccncc1,-8.06
4,O=C(Nc1ccccc1F)Nc1cccc2ccc(O)cc12,11.4
5,C/C(CC(=O)Nc1ccc(N(C)C)cc1)=N\NC(=O)C(=O)NCc1ccccc1,-1.15
6,CCN(CC)S(=O)(=O)N1CCC(C(=O)NCC2COc3ccccc3O2)CC1 (centres unmarked),-10.9
7,O=C(Cc1ccccc1[N+](=O)[O-])Nc1ccccc1C(=O)N1CCCC1,23.2
8,Cc1cccc(CSCCNC(=O)c2ccc(CN3CCOCC3)cc2)c1,-28.3
9,COc1ccc(/C=N\NC(=O)CCc2c(C)n[nH]c2C)c(OC)c1OC,24.7
10,CCc1cc(=O)oc2cc(OCC=C(C)C)ccc12,-11.4
11,O=C(Nc1ccc2c(c1)OCCO2)C1CCN(C(=O)c2ccc([N+](=O)[O-])cc2)CC1,-65.6
12,CC(=O)N1c2ccc(S(=O)(=O)N3CCC(C(=O)Nc4cc(C)cc(C)c4)CC3)cc2CC1C (centres unmarked),2
13,COc1ccccc1-n1c([S-])c(C(=O)Nc2ccccc2C(F)(F)F)[n+]2ccc(C(=O)NCCO)cc12,11.7
14,Cc1ccc(NCC(=O)N/N=C/c2c[nH]c3ccccc23)cc1,11.4
15,COc1ccc(-c2nnc(SCC(=O)c3ccc[nH]3)n2-c2ccccc2)cc1,-0.875
16,COc1ccc2oc(=O)c(C(=O)N3CCCC3)cc2c1,14.7
17,COc1ccc2cc(C(=O)C3CCCN(C(=O)/C=C/c4ccccn4)C3)ccc2c1 (centres unmarked),-18.3
18,CCOC(=O)N1CCN(C(=O)c2cc3ccccc3o2)CC1,17.7
19,CCS(=O)(=O)c1nc2ccccc2n1CC(=O)N1CCOCC1,10.8
20,CC(C)NC(=O)COc1cccc2ccccc12,-18.7
